Data taken from PubChem BioAssay AID485313 (National Center for Advancing Translational Sciences (NCATS), 2010).
Out of some 320,000 compounds screened, about 7,600 (2.4%) were called active. The shares of active, inactive and inconclusive entries below differ from those in the screen. Calls follow the shape of the dose curve; as a rule, active = well fitted activation curve with a large enough effect; inconclusive = small, poorly fitted or top-dose-only effect; inactive = no such curve, though single readings can be large or run the other way. Potencies of inconclusive entries are left out as doubtful fits.

Test: qHTS Assay for NPC1 Promoter Activators; also: nearly all actives have a fitted effect of over 60% in size;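 as to activation: reporter is driven by a mutant NPC1 promoter; % of control where 0% means no effect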
Settings: Huh7 NPC1 promoter luciferase reporter, 24 h; series mostly up to 9.22 µM; activation: at the top concentration
How it was run: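 Readout is luciferase luminescence, reflecting NPC1 promoter activation in stably transfected Huh7 cells after 24 h compound exposure at 37 °C in reduced-serum medium with 10% FBS.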
Potency is read from the fitted curve at half-maximal effect; tags tell the direction and shape of the fitted curve.

Row | Compound | Potency | activation
1 | CC1(C)CC(/C=C/c2ccccc2)=Nc2ccccc2N1 | inconclusive [activator, partial curve] | 
2 | Cc1cccc(NC(=O)COc2ccc(-c3nn(C)c(=O)c4ccccc34)cc2)c1 |  | inactive: -3.15%
3 | CC(=O)Oc1ccc2occ(-c3ccccc3)c2c1 | inconclusive [activator, single point] | 
4 | CCN(CC)CCNC(=O)c1ccc2c(=O)n(CCc3ccccc3)c(=O)[nH]c2c1 |  | inactive: 4.65%
5 | O=C(O)c1ccc(N/N=C/c2ccc3ncccc3c2)cc1 | inconclusive [activator, partial curve] | 
6 | CCc1cc(=O)oc2c3c(cc(OCC(=O)NCc4cccnc4)c12)OC(C)(C)CC3 |  | inactive: 2.93%
7 | CC(C)n1cnc2c(Nc3ccc(C(=O)O)cc3)nc(Cl)nc21 | inconclusive [activator, single point] | 
8 | CCC1CCCCN1C(=O)CSc1nnc(-c2ccco2)o1 (stereo unspecified) | inconclusive [activator, single point] | 
9 | Cc1ccc(-c2nc(C#N)c(NCc3ccco3)o2)cc1 | inconclusive [activator, single point] | 
10 | COC(=O)[C@@H](c1ccccc1)N(C)S(=O)(=O)c1cccc(S(=O)(=O)N(C)[C@@H](C(=O)OC)c2ccccc2)c1 |  | inactive: -14.4%
11 | CC(=O)c1cccc(NC(=O)COc2cc3oc(=O)c(CC(C)O)c(C)c3cc2Cl)c1 (stereo unspecified) |  | inactive: 2.81%
12 | O=C(NCCc1ccccc1)c1ccc(Cl)nc1 | active: 3.98 µM | 
13 | COc1cc(C)ccc1OCc1cc(C(=O)N2CCCCCCC2)no1 | inconclusive [activator, partial curve] | 
14 | COc1cc(OC)c(C(=O)Nc2ccc3ccccc3c2)cc1OC | inconclusive [activator, single point] | 
15 | CCn1nnnc1SCC(=O)c1ccc(C)cc1C | inconclusive [activator, single point] | 
16 | Fc1cccc(-c2nnn3c2nc(Cl)c2ccccc23)c1 |  | inactive: -3.87%
17 | CC(C)c1ccc2nc(N)sc2c1 | active: 1.58 µM | 
18 | O=C(Nc1ccccn1)c1cc2ccccc2cc1O | active: 3.55 µM | 
19 | CCCN(CCC)C(=S)NC(=O)c1ccc(-c2ccccc2)cc1 |  | inactive: 1.5%
20 | c1ccc(OCc2nc3ccccc3s2)cc1 | active: 2.51 µM | 
21 | N#Cc1c(-c2ccc(Cl)cc2)c2c([nH]c1=O)-c1ccccc1OC2 |  | inactive: -7.77%
22 | Nc1ccc(-c2nc3ccc(N)cc3[nH]2)cc1 | inconclusive [activator, single point] | 
23 | CC1CCCN(C(=O)CSc2cnc3ccccc3n2)C1 (stereo unspecified) | inconclusive [activator, single point] | 
24 | Cc1ccc(NC(=O)C2CCCCC2C(=O)O)cc1Cl (stereo unspecified) |  | inactive: -0.228%
25 | CCNC(=S)Nc1ccc(-c2nc3ccccc3[nH]2)cc1 | active: 3.16 µM | 
26 | C/C(=N\NC(=O)c1c(C)nc2ccccn12)c1ccco1 | inconclusive [activator, single point] | 

Row | Compound | Potency | activation
27 | CCCCOc1ccc(CNC(=S)N/N=C/c2ccc(OC)c(OC)c2)cc1 |  | inactive: 3.38%
28 | O=C(O)c1cc(N/N=C/c2ccc(-c3ccc(F)cc3)o2)ccc1Cl | inconclusive [activator, single point] | 
29 | O=C(Nc1cc([N+](=O)[O-])ccc1O)c1cccc([N+](=O)[O-])c1 | inconclusive [activator, single point] | 
30 | O=C(Nc1ccccc1)c1nnsc1S(=O)c1ccc(Cl)cc1 (stereo unspecified) | inconclusive [activator, single point] | 
31 | Cc1ccc(-c2nc(-c3ccccc3)no2)c(Cl)c1 | active: 2.82 µM | 
32 | Cc1ccc(NC(=O)c2c(Cl)n(C)c3ccccc23)cc1 | inconclusive [activator, partial curve] | 
33 | CCC(=O)Nc1ccc2nn(-c3ccc(F)cc3)nc2c1 | active: 0.355 µM | 
34 | O=C(OC1CCOC1=O)c1ccc(-c2nc3ccccc3s2)s1 (stereo unspecified) | inconclusive [activator, single point] | 
35 | CCc1ccc(C(=O)COC(=O)c2cccs2)cc1 | active: 2.51 µM | 
36 | c1ccc(CCNc2nc3ccccc3s2)cc1 | inconclusive [activator, single point] | 
37 | Cc1ccc(S(=O)(=O)N2CCCCC2)cc1NS(=O)(=O)c1cccc(C(=O)O)c1 |  | inactive: -0.0932%
38 | Nc1nnc(/C=C/c2ccccc2)s1 | inconclusive [activator, single point] | 
39 | CCOc1ccc2c(c1)nc(SCC(=O)c1cccs1)n2C | inconclusive [activator, partial curve, poor fit] | 
40 | Cn1c(-c2cccs2)nc2ccccc21 | active: 3.98 µM | 
41 | CCOC(=O)/C=C/C(=O)OCC(=O)N1CCN(C(=O)c2ccco2)CC1 |  | inactive: -1.38%
42 | COc1cccc(CNS(=O)(=O)c2ccc3c(c2)oc(=O)n3C)c1 |  | inactive: -1.46%
43 | Cc1ncoc1C(=O)Nc1ccc(Oc2ccccc2)cc1 | inconclusive [activator, partial curve] | 
44 | Cc1occc1C(=O)N/N=C/c1ccc(Br)s1 | inconclusive [activator, single point] | 
45 | Cc1ccc2c(C)c(C(=O)N(C)C(C)c3ccon3)oc2c1C (stereo unspecified) | inconclusive [activator, partial curve] | 
46 | S=C(c1ccc(OCc2ccccc2)cc1)N1CCCC1 | inconclusive [activator, partial curve] | 
47 | COc1ccc(OCc2ccc(/C=N\NC(=O)c3sccc3C)o2)cc1 | inconclusive [activator, single point] | 
48 | O=C(CSc1nnnn1C1CCCC1)c1ccc2c(c1)OCCO2 | active: 1.12 µM | 
49 | CSc1nnc(NC(=O)c2ccco2)s1 | inconclusive [activator, single point] | 
50 | CC(C)C(=O)NC(=S)Nc1sc2c(c1C(N)=O)CCCC2 | inconclusive [activator, partial curve] | 
51 | COc1ccc(OCc2cc(C(=O)N3CCCC(O)C3)no2)c2ccccc12 (stereo unspecified) | inconclusive [activator, single point] | 
